{
  "source": "patent US10022357B2",
  "about": "“Amyloid precursor protein MRNA blockers for treating Down syndrome and Alzheimer's disease” (THE GENERAL HOSPITAL CORPORATION, priority 2013, dated 2018)",
  "key": {"SH-SY5Y cells [1]": {"system": "SH-SY5Y cells", "assay": "Calcein assay for iron uptake"}, "SH-SY5Y cells [2]": {"system": "SH-SY5Y cells", "assay": "MTT/MTS assay for cell viability", "type": "cell-based, human", "details": "for Toxicity (MTT): SH-SY5Y cells", "method": "Cell viability was determined using MTT (thiazolyl blue tetrazolium) viability assays. Cells were grown in 96 well plates and treated as indicated above. […] The media was aspirated from the cells and 150 μL of solvent (0.1% Nondet P-40, 4 mM HCl in isopropanol) was added to each well and the plate shaken for 15 minutes."}, "APP": {"system": "APP", "assay": "Western blot of APP levels in SH-SY5Y cells"}, "[3]": {"system": "β-actin and α-synuclein (SNCA)", "assay": "Western blot of β-actin and α-synuclein levels in SH-SY5Y cells (specificity)", "details": "48 hours"}, "Aβ-42, SH-SY5Y cells": {"system": "Aβ-42, SH-SY5Y cells", "assay": "Chemiluminescent BetaMark x-42 ELISA of Aβ-42 in conditioned medium of SH-SY5Y cells", "type": "cell-based, human", "details": "10 μM, 72 hour treatment", "method": "Aβ-42 peptide is the critical APP derived peptide to trigger the aggregation of amyloid in both AD and DS and is critically linked to tau induced neurotoxicity. […] In this representative experiment, a chemiluminescent BetaMark x-42 ELISA assay for Aβ-42 measurement was employed (Covance, inc). The assays were carried out according to the manufacture's conditions such that the standard curve was linear and the measured points were within the ‘standards’ range."}, "SH-SY5Y cells [4]": {"system": "SH-SY5Y cells", "details": "concentrations up to 10 μM", "method": "After reaching 80% confluence, a SH-SY5Y cells were 1:3 split onto two 12-well plates. After allowing the cells to settle for 24 hours, the medium was switched to a 1% FBS DMEM (Dulbecco's modified essential medium supplemented with 1% FBS and penicillin/streptomycin). Aβ Assays: Total Aβ amyloid levels were assessed as previously described (8) and AP-42 levels were measured by use of ELISA according to manufacturer's instructions (Covance Chemiluminescent BetaMark x-42 ELISA). LDH assay: The 1% FBS medium was recommended by the LDH Cytotoxicity Kit (Cayman Chemical, Ann Harbor, Mich.) to reduce interference as FBS also contains LDH. Cells were exposed to 10-fold increases in concentrations of JTR-009 reconstituted in IX PBS (0.1 nM-100 μM) compared to PBS as a control for 48 hours. Thus, eight wells on each 12-well were treated for 48-hour after which time 100 μL of supernatant was extracted from each of the treated wells and transferred to a 96-well plate. A LDH standard from the kit was also added to the plate."}, "[5]": {"system": "total Aβ levels, SH-SY5Y cells", "assay": "ELISA of total Aβ in conditioned medium of SH-SY5Y cells", "type": "cell-based, human"}, "APP and amyloid-beta": {"system": "APP and amyloid-beta", "assay": "Suppression of APP and Aβ levels in SH-SY5Y cells and primary neurons (Table 2 summary)", "type": "cell-based", "details": "read-out: APP and amyloid-beta Inhibition (IC50)"}},
  "data": [
    {"smiles": "O=C(O)CN(CCN(CC(=O)O)CC(=O)O)CCN(CC(=O)O)CC(=O)O", "note": "[DTPA, reference compound]", "values": [
      {"measurement": "inhibition of calcein staining (normalized iron uptake)", "setting": "SH-SY5Y cells [1]; JTR-009 10 μM, DTPA blocking control", "value": "100±8", "unit": "%"}
    ]},
    {"smiles": "Cc1ccc2[nH]c(-c3ccc(N)cc3)nc2c1", "note": "[JTR-009, 4-(5-methyl-1H-benzimidazol-2yl) aniline]", "values": [
      {"measurement": "Toxicity (MTT)", "setting": "SH-SY5Y cells [2]", "value": 100, "unit": "µM"},
      {"measurement": "concentrations at which cell toxicity was displayed", "setting": "SH-SY5Y cells [2]; SH-SY5Y cells and primary neurons", "value": "> 30", "unit": "µM"},
      {"measurement": "cellular viability compared to controls", "setting": "SH-SY5Y cells [2]; concentrations as high as 100 μM", "value": 80, "unit": "%"},
      {"measurement": "lowest dose that limited APP production", "setting": "APP; 48 hours", "value": 100, "unit": "nM"},
      {"measurement": "concentrations that selectively reduced neural APP production", "setting": "APP; Western blotting", "value": "picomolar concentrations"},
      {"measurement": "effect on β-actin and α-synuclein levels", "setting": "[3]", "value": "maintaining"},
      {"measurement": "reduction of Aβ-42 secretion", "setting": "Aβ-42, SH-SY5Y cells", "value": "more than two fold"},
      {"measurement": "cell death by LDH cytotoxicity assay", "setting": "SH-SY5Y cells [4]", "value": "without causing any significant cell death"},
      {"measurement": "inhibition at 10 µM", "setting": "SH-SY5Y cells [1]; Homo sapiens, SH-SY5Y, read-out: inhibition of calcein staining (normalized iron uptake)", "value": "-1 ± 13", "unit": "%"},
      {"measurement": "fold inhibition of total Aβ peptide levels", "setting": "[5]; 1 μM, 48 hours, SH-SY5Y conditioned medium, N=5", "value": 3, "unit": "fold"},
      {"measurement": "lowest concentration that inhibited secreted Aβ", "setting": "[5]; SH-SY5Y, 72-hour treatment", "value": 10, "unit": "nM"},
      {"measurement": "IC50", "setting": "APP and amyloid-beta", "value": 100, "unit": "nM"}
    ]},
    {"smiles": "Cc1ccc(C(=O)Cn2c3c(sc2=N)CCCC3)cc1", "note": "[PFTα, pifithrin-alpha, reference compound]", "values": [
      {"measurement": "inhibition of neural APP, potency compared with JTR-009", "setting": "APP; 48 hours", "value": "same potency as JTR-009"},
      {"measurement": "effect on β-actin and α-synuclein levels", "setting": "[3]", "value": "co-reduced αsyn levels"}
    ]},
    {"smiles": "CN1CC[C@]2(C)c3cc(OC(=O)Nc4ccccc4)ccc3N(C)[C@H]12", "note": "[posiphen, reference compound]", "values": [
      {"measurement": "Toxicity (MTT)", "setting": "SH-SY5Y cells [2]", "value": 100, "unit": "µM"},
      {"measurement": "effect on β-actin and α-synuclein levels", "setting": "[3]", "value": "limited expression of APP but also that of (β-actin and α-synuclein"}
    ]}
  ]
}
